Results published in PubChem BioAssay (Tox21).
Inconclusive results are not listed. Unless noted, calls follow the shape of the full dose curve. Some compounds were tested as several samples or in several runs, with calls that do not always agree. Not every entry of the source has a single result; some have several. They are shown here; other results are not. The source may hold further records. The values listed for one entry are repeats across runs, samples, wells, individuals or studies. A tag in brackets gives the origin of a value. A, B and so on number the origins entry by entry.

Target: Gonadotropin-releasing hormone receptor (Homo sapiens) (UniProt P30968)
Experiment: Human gonadotropin-releasing hormone receptor (GnRHR) small molecule agonists, calcium flux assay in GnRHR-HEK293 cells (AID 1920063); also: nearly all actives have a fitted effect of over 35% in size
Details: calcium flux fluorescence, agonist mode; series mostly up to 57.6 µM
Text: (§1) National Center for Advancing Translational Sciences [NCATS]
(§2) Division of Preclinical Innovation [DPI]
(§3) U.S. Environmental Protection Agency [EPA]
(§4) National Institutes of Environmental Health Sciences [NIEHS]
(§5) National Toxicology Program [NTP]
(§6) U.S. Food and Drug Administration [FDA]
Gonadotropin-releasing hormone receptor (GnRHR) is a G-protein-coupled receptor (GPCR) and acts (through phospholipase C) to increase intracellular inositol trisphosphate and then release intracellular calcium stores. Cell-based GnRHR-Hek293 calcium influx assay is using HEK293 cells that have been genetically engineered to express the human GnRHR, which activity can be measured by calcium signaling. A compound/drug can activate (agonist) GnRHR that can be monitored by levels of intracellular calcium.
(§7) GnRHR-HEK293 cells developed by Codex Corp contain human GnRHR reporter gene, which was stably integrated into HEK 293 cells. The compound activation can be detected by fluorescence intensity via calcium flux assay. This cell line has been used to screen the Tox21 10K compound library to identify GnRHR agonists.
(§8) GnRHR-Hek293 cells were dispensed at 1500cells/4uL/well in 1536-well black wall/clear bottom plates using a multidrop dispenser. After the assay plates were incubated at a 37 C/5% CO2 incubator for 18 hours, 4 uL of Calcium Dye Solution was added to each well. The plates were incubated at 37 C for 1 hour. For agonist mode, 23 nL of compounds dissolved in DMSO, positive controls or DMSO only was transferred to the assay plate by a pin tool station. The fluorescence intensity in the plates was measured using FDSS 7000EX kinetic plate reader with a filter set of Ex/Em=480/540 for 3 min at 1 sec intervals. Each test compound was measured at 15 concentrations and in triplicates.
Potency is read from the fitted curve at half-maximal effect.

Chain of UniProt P30968 (P30968 whole entry, looked up): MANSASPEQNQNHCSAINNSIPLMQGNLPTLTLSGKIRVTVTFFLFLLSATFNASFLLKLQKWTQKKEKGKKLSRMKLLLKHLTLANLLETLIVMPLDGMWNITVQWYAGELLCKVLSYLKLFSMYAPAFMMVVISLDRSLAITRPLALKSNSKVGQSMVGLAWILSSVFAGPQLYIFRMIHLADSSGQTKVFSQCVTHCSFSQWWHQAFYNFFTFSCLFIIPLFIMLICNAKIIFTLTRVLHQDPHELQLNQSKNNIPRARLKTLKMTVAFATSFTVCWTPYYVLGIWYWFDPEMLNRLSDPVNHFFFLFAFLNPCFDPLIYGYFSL

Structure (SMILES) | Potency
COCCl | active: 36 µM [sample A] and inactive [sample B]
Nc1ccc(Cl)cc1N | inactive [sample A] and active: 27.5 µM [sample B]
COP(=O)(OC)OC | active: 39.2 µM [sample A] and inactive [sample B]
C=CCO | inactive [sample A] and active: 17.4 µM [sample B]
Oc1ccc(Cl)cc1Cc1ccccc1 | active: 35.1 µM [sample A] and inactive [sample B]
O=C1C2CC=CCC2C(=O)N1SC(Cl)(Cl)Cl (centres undefined) | inactive [sample A] and active: 38.3 µM [sample B]
C1CN2CCN1CC2 | inactive [sample A] and active: 38.9 µM [sample B]

Target: KiSS-1 receptor (Homo sapiens) (UniProt Q969F8)
Experiment: Human kisspeptin (KISS1R) small molecule agonists, calcium flux assay in KISS1R-HEK293 cells (AID 1920064; active = well fitted activation curve with a large enough effect in the repeat runs)
Details: KISS1R-HEK293, calcium flux fluorescence, agonist; series mostly up to 76.8 µM
Text: as §1, §2, §3, §4, §5, §6
Kisspeptin and its receptor KISS1R play key roles in mammalian reproduction due to their involvement in the onset of puberty and control of the hypothalamic-pituitary-gonadal axis such as regulates GnRH release from the hypothalamus. The kisspeptin/KISS1R system also plays a direct role in peripheral organs (including the ovary, testis, uterus, and placenta) and is implicated in reproductive diseases such as miscarriage and polycystic ovary syndrome (PCOS). Abnormal KISS1R activity is associated with abnormal puberty, infertility, endometriosis, and hormone-dependent tumors. The KISS1 receptor (KISS1R, also called GPR54), a G-protein-coupled receptor (GPCR), acts (through phospholipase C) to increase intracellular inositol trisphosphate and then release intracellular calcium stores. Cell-based KISS1R-HEK293 assay is using HEK293 cells that have been genetically engineered to express the human KISS1R, which activity can be measured by calcium signaling. A compound/drug can activate (agonist) KISS1R that can be monitored by levels of intracellular calcium.
as §7, with “KISS1R-HEK293” for “GnRHR-HEK293”, “KISS1R” for “GnRHR reporter”, “agonists of KISS1R.” for “GnRHR agonists.”
as §8, with “KISS1R-Hek293” for “GnRHR-Hek293”, “1500 cells/4uL/well” for “1500cells/4uL/well”, “microL” for “uL”, “And then” for “For agonist mode,”, “controls,” for “controls”, “intervals.[…]” for “intervals.”

Chain of UniProt Q969F8 (Q969F8 whole entry, looked up): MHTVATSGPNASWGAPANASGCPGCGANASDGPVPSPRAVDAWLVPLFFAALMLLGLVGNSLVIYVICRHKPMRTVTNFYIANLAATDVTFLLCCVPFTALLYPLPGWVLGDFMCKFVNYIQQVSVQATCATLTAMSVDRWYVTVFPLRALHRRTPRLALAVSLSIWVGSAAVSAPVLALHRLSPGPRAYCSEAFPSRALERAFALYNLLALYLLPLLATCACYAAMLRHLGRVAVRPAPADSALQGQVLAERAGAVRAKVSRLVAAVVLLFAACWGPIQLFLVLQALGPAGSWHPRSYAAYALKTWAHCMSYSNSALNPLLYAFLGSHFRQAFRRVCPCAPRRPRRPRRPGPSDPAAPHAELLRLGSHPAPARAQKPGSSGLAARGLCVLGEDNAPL

Structure (SMILES) | Potency
COCCl | active: 45.3 µM [sample A] and inactive [sample B]
COP(=O)(OC)OC | active: 49.4 µM [sample A] and inactive [sample B]
O=C1C2CC=CCC2C(=O)N1SC(Cl)(Cl)Cl (centres undefined) | inactive [sample A] and active: 54.1 µM [sample B]
CCOP(=O)(O)OCC (tested in a mixture with another compound) | inactive [sample A] and active: 15.4 µM [sample B]

Test system: not listed separately
Experiment: p53 small molecule agonists, cell-based qHTS assay with human liver microsomes (AID 1963577);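 as to activation: p53 response element beta-lactamase reporter cells with liver microsomes plus NADPH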
Details: HCT-116 p53RE-bla with human liver microsomes, ratio, 16 h; series mostly up to 66 µM
How it was run: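 Fluorescence of the beta-lactamase reporter in p53RE-bla cells, detected with LiveBLAzer substrate (2 h, room temperature, dark), served as the read-out after 16 h compound exposure at 37 C with human liver microsomes and NADPH, each 0.5 mg/mL final.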

Structure (SMILES) | Potency
C[C@]12CC[C@H]3[C@@H](CC[C@@]45O[C@@H]4C(O)=C(C#N)C[C@]35C)[C@@H]1CC[C@@H]2O | active: 36.3 µM [sample A] and inactive [sample B]
CCOP(=S)(OCC)Oc1cnc2ccccc2n1 | inactive [sample A] and active: 4.58 µM [sample B]
CCOS(=O)(=O)OCC | active: 36.4 µM [sample A] and inactive [sample B]
